Results reported in the supplement of paper PMC10126150.
Sequences with one replicate were seen in a single cluster, so their values are uncertain.

System: ATP
Test: switch fluorescence ratio, 500 uM ATP over buffer (Cy3 cluster intensity, sum of 5 cycles each) (fold (ratio)); higher = stronger signal-on switching upon ATP binding; sequences stand for … in TCGTCGGCAGCGTCAGATGTGTATAAGAGACAGTTTTTTTTTTTTTTTTTTTTTTTTT…TC
Details: aptamer strand: ATP DNA aptamer (quencher-CACCTGGGGGAGTATTGCGGAGGAAGG + anchor), 100 nM annealed; ATP concentration: 500 uM; one replicate
Summary of the method: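 After annealing to 100 nM quencher-labelled ATP aptamer, Cy3-labelled switching-strand clusters on a modified Illumina MiSeq flow-cell were imaged in selection buffer. A second image followed after 15 min with 500 uM ATP at 22 °C, and five such buffer/ATP cycles were done, each separated by NaOH stripping and re-annealing. The fluorescence ratio, averaged per switch-domain sequence, is summed target-cycle over summed buffer-cycle Cy3 intensity per cluster, with clusters outside 100-1000 RFU excluded.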
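Note: ATP exposure 15 min at 22 °C before imaging.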

Row | Sequence | switch fluorescence ratio
1 | TAACGCCCCG | 1.41
2 | TGAATAAGCT | 1.02
3 | ATCGTCCGAT | 0.945
4 | GTAAATCGGT | 1.04
5 | TATGGCCAAG | 1.01
6 | ACGCGGCCGT | 1.01
7 | ATTAGACGGT | 1.36
8 | CCTTAAATGG | 1.12
9 | CATTCATGTA | 0.962
10 | CGAGCTAAAC | 2.7
11 | GAGTTGGAAA | 0.999
12 | AAGGTGGTAT | 1.02
13 | CGTTGGGAC | 1.02
14 | TTACATGGAC | 1.05
15 | TTCGGACACG | 1.04
16 | AAGACCTTGT | 1.05
17 | GTCATTAATA | 0.996
18 | GTAATACGCG | 1.03
19 | GCGCGAAATA | 0.99
20 | GGCGTTCAC | 1.08
21 | GCGACGGGA | 1.39
22 | AATATCATGC | 0.974
23 | TCAGAACAAC | 1.11

Row | Sequence | switch fluorescence ratio
24 | GATCATACTG | 1.11
25 | ATAGTGCATG | 0.975
26 | AGACGAAAAA | 1.04
27 | ACCTACCAAA | 1.28
28 | TTTTGTG | 0.98
29 | TAGCCACTTG | 1.17
30 | AAGCTTGGGA | 1.03
31 | CCCAACTATG | 1.08
32 | GAACAGGATG | 1.02
33 | CGTTTCTGAT | 1.03
34 | GGCTTTTGCG | 0.977
35 | TGATGATTCT | 1.02
36 | TCCACGGCGC | 1.12
37 | GCGGCGCTCT | 0.974
38 | GTTGATCGCT | 0.977
39 | CGCGTGGGGA | 1.02
40 | GACCGCGCTT | 1.06
41 | TACATGTTTC | 1
42 | CTTCGCGAGA | 1.14
43 | GTTCGGCCGG | 1.01
44 | GCGGGGAGT | 1.05
45 | ATAAATTAT | 1.01
46 | TTTTCGCCAG | 1.02

Row | Sequence | switch fluorescence ratio
47 | CGTGATCAAA | 1
48 | CGAAACTTA | 0.991
49 | AAACTTTTGG | 0.996
50 | CCTACTGGTC | 1.01
51 | AGGGATAGTG | 0.97
52 | CCAAAACTAG | 1.02
53 | TAAGTCGTTA | 1.02
54 | TTGCAGAGG | 1.03
55 | CCGGAATATG | 2.61
56 | GGCGCGGGAA | 1.03
57 | TAGTCTGCTG | 0.956
58 | TTTCTGGCCA | 1.04
59 | CAAATATGGG | 0.973
60 | AAAGATTCAG | 1.02
61 | ATCGCTGCG | 1.01
62 | TCAGTGCGTT | 0.978
63 | TCCATAGGAT | 1
64 | GAGGGAACAT | 0.974
65 | CCAATGGGTT | 0.978
66 | ACACTTATCA | 1.06
67 | GGGGTAGTT | 0.955
68 | TGGTCGCTCA | 1.04
69 | TTAATATCAC | 1.02

Row | Sequence | switch fluorescence ratio
70 | CAGGAATGAT | 0.977
71 | GTAATCTTAG | 0.963
72 | ATCCGAGTAA | 1.53
73 | TAGTTGTGGG | 0.99
74 | TGATCGTGGG | 0.957
75 | GGCCTTGCGG | 1.01
76 | AAATGCATTT | 1.03
77 | ACACCAGTTC | 1.12
78 | TCAGGTGCTG | 1.09
79 | AAATACAAGC | 1.01
80 | ATCTAAAGCA | 0.985
81 | TGGATTCAGC | 1.07
82 | GATACCGCGA | 4.76
83 | CTTCGTCGAG | 0.996
84 | ACTTCTCATA | 1.04
85 | TAGGCGAGT | 0.987
86 | TTAGCGATG | 0.972
87 | TGTTTGTAAC | 0.985
88 | TAAGTAGGTG | 1.06
89 | ACGCGGCATA | 1.09
90 | TAGGCCTATC | 0.984
91 | ATTCACAGGA | 1.05
92 | AACGTGGTGG | 0.96

Row | Sequence | switch fluorescence ratio
93 | CTCGCGGGGA | 1.02
94 | TTCGCATCCC | 1.32
95 | TGGACAGCCT | 1.03
96 | AGTTAGACCA | 0.999
97 | AGGATGGAAG | 1.02
98 | GCGGGATCTG | 0.976
99 | GTTGATAGGG | 0.979
100 | CGGACCTACG | 1.18
101 | CAGGAGAACT | 1.02
102 | CAGAGCTT | 0.981
103 | TGGGGCATAA | 3.65
104 | CTCGGGAAG | 1.05
105 | GGGTTCTCGG | 1.01
106 | AGCCAGATGT | 1.01
107 | CAACCGCCAC | 2.04
108 | GCGGAAGG | 1.03
109 | GCACAAATTT | 1.01
110 | CAGAGCTGTA | 1.13
111 | GCTTTTTTTC | 0.997
112 | GCTTATCT | 0.95
113 | ACTAGTCAGT | 1.09
114 | TAGAATTCA | 1.01
115 | CAGTGAGTGA | 1.03

Row | Sequence | switch fluorescence ratio
116 | GGATTTCTTG | 0.998
117 | CCGGGTACGC | 1.33
118 | TAATATCTAA | 0.998
119 | CTGGCTGCAC | 2.06
120 | TTCTTCCCAA | 1.45
121 | ATTCGAGTAC | 1.03
122 | AGCCGGCTCG | 1.01
123 | GGATCTAGGA | 0.982
124 | CTTGACAGT | 0.996
125 | GATAAGAGTT | 0.962
126 | ATGTAGGGCG | 0.968
127 | TTGTGAGAGA | 1.03
128 | GTAATGTTTG | 1.01
129 | GCTCGATTTC | 1.07
130 | CGCTTGTAAA | 1.05
131 | AACTCATGCG | 0.956
132 | TATGGGGT | 0.98
133 | GGTCTGACTT | 1.01
134 | GTAGTTGTAA | 0.992
135 | AAGGTTTAAC | 1.04
136 | AAGGACACTG | 1.09
137 | TCTTCCCCAG | 4.71
138 | GGAGTGGAC | 0.977

Row | Sequence | switch fluorescence ratio
139 | TTCGTGGTAG | 1.03
140 | GATAGTACGC | 1.03
141 | AATCTGA | 1.05
142 | TCTGAGACAG | 1.01
143 | AGGATCTTCG | 1.01
144 | CCGTGTTGGG | 1.03
145 | ATCTCAGACG | 1.08
146 | TAGCTAATCT | 1.02
147 | TACAACGCCT | 1.14
148 | CTAAATACAA | 1.03
149 | CCACGTATCA | 1.02
150 | AGTTGTCACG | 1.03
151 | TACATGTCCT | 1.05
152 | ATCATTGCCA | 0.962
153 | GGTCCGGAGA | 1.03
154 | TTAGGCCATG | 1.06
155 | GTATACTAAG | 1.02
156 | CAAACGTCGG | 1.02
157 | TCCATACTTT | 0.988
158 | TATCTTATAA | 1
